According to PubChem BioAssay AID1468 (National Center for Advancing Translational Sciences (NCATS), 2008):
About 1,100 (0.39%) of roughly 280,000 compounds were called active. The inconclusive results got no clear call from the source; some entries with a clear call stand among them for comparison. Calls follow the shape of the dose curve; as a rule, active = well fitted inhibition curve with a large enough effect; inconclusive = small, poorly fitted or top-dose-only effect, or effect the other way; inactive = flat fitted curve, though single readings scatter. A potency beside an inconclusive call is a rough fit, not a confirmed value.

Target: Microtubule-associated protein tau (Homo sapiens) (UniProt P10636)
Test: qHTS for Inhibitors of Tau Fibril Formation, Fluorescence Polarization; also: nearly all actives have a fitted effect of over 55% in size
Details: K18 P301L tau heparin fibrillization, Alexa594 FP, 6 h; series mostly up to 57.7 µM; activity, negative = inhibition: at the top concentration
Summary of the method: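 K18 P301L tau (15 uM unlabeled/0.24 uM Alexa 594-labeled, final) + compound + heparin 20 uM final; 100 mM NaOAc pH 7; 6 hr 37 C; ThT 30 uM final added, 1 hr RT; FP ex 555/em 632 nm.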
% is scaled to controls: 0 for no effect and ±100 for the full control effect; potency is read from the fitted curve at half-maximal effect; tags tell the direction and shape of the fitted curve.

Sequence of UniProt P10636 (P10636 whole entry, looked up): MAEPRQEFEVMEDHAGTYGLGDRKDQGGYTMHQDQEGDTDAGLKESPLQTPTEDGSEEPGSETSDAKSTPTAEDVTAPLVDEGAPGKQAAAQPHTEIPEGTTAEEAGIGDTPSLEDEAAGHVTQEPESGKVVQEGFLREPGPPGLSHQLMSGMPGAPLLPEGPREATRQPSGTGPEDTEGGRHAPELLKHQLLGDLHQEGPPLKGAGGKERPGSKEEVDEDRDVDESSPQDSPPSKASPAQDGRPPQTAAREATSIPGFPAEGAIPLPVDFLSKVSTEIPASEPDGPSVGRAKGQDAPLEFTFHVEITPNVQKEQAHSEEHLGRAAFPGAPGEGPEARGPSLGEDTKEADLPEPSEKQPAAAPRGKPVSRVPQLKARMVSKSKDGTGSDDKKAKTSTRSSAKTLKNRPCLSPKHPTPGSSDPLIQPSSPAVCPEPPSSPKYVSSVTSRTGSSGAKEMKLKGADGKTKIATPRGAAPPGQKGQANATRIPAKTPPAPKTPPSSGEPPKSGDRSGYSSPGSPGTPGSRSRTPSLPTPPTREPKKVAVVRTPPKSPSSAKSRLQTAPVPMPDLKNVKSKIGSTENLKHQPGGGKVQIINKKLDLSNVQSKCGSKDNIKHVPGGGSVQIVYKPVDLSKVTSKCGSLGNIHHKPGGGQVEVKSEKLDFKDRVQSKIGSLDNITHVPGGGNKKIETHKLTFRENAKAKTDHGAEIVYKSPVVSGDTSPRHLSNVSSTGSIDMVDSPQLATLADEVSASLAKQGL

Potency, active:
COc1cc2c(cc1NC(=S)NC(=O)c1c(OC)cccc1OC)oc1ccccc12 28.2 µM
Cc1oc(-c2ccc(C(=O)Nc3cccc(C(F)(F)F)c3)cc2)nc1CSc1ccccc1 14.1 µM
COc1ccccc1NC(=O)Nc1ccc(Cl)c(S(=O)(=O)Nc2ccccc2OC)c1 28.2 µM
O=C(Nc1ccc(Cl)c(Cl)c1)C1=Cc2ccccc2OC1 15.8 µM

Potency, inconclusive:
O=C(NCc1ccc2[nH]c3c(c2c1)CCCC3)c1ccc(S(=O)(=O)N2CCCC2)cc1 2.82 µM [activator, partial curve]
COC(=O)c1ccccc1NC(=S)NC(NC(=O)COc1ccccc1)C(Cl)(Cl)Cl (configuration not stated) 25.1 µM [inhibitor, partial curve]
Cc1cc[n+](-c2nc3ccccc3nc2[N-]S(=O)(=O)c2cccs2)cc1C 7.94 µM [inhibitor, partial curve, poor fit]
COC(=O)c1ccc(C(/C=C/[C@@H](C)C(=O)NCc2cc(C)n(C)n2)NC(=O)OCc2ccccc2)cc1 (some centres not stated) 10 µM [inhibitor, single point]
CSC[C@@H]1NC(=S)N(c2ccc(C)cc2)C1=O 8.91 µM [inhibitor, partial curve]
O=C(NCC1CCCO1)c1ccccn1 (configuration not stated) 0.0562 µM [inhibitor, full curve, poor fit]
COC(=O)c1cccc(NC(=S)NCCC2=CCCCC2)c1 22.4 µM [inhibitor, single point]
O=C(Nc1ccccc1)Nc1csc2ccccc12 5.62 µM [activator, partial curve]
CCc1nnc(NC(=O)C(CC)c2ccccc2)s1 (configuration not stated) 1.12 µM [inhibitor, partial curve, poor fit]
Cc1cccc(-c2nc3scc(CCNS(=O)(=O)c4ccc(F)cc4C)n3n2)c1 2 µM [inhibitor, full curve, poor fit]
COc1ccc(CC(=O)O/N=C(\N)Cc2ccc(OC)c(OC)c2)cc1 3.98 µM [inhibitor, full curve]
CCOC(=O)c1sc(NC(=O)C(C)Sc2nc(N)cc(=O)[nH]2)nc1C (configuration not stated) 8.91 µM [inhibitor, single point]
COc1cccc(-c2nnn(CC(C)=O)n2)c1 3.55 µM [inhibitor, single point]
Nc1ccc(CCNc2ncnc3c2ncn3C2OC(CO)C(O)C2O)cc1 (configuration not stated) 0.316 µM [inhibitor, full curve]
Cc1ccc(S(=O)(=O)c2c(N)n(CCCO)c3nc4ccccc4nc23)cc1 39.8 µM [inhibitor, single point]
CC1CCN(S(=O)(=O)c2ccc3nc(NCc4ccc(F)cc4)ccc3c2)CC1 17.8 µM [inhibitor, partial curve, poor fit]
O=C(CSCc1ccc(Cl)cc1)Nc1ccc(S(=O)(=O)N2CCCCCC2)cc1 11.2 µM [inhibitor, partial curve]
COc1ccc(-c2c(C#N)c(SCC(=O)Nc3ccc(Br)cc3)nc(C)c2C(=O)Nc2ccccc2)cc1 15.8 µM [inhibitor, partial curve]
Cc1nc2ccccc2c(=O)n1/N=C/c1ccc([N+](=O)[O-])o1 28.2 µM [inhibitor, partial curve, poor fit]
O=C(CSc1nc(-c2ccccc2)c2ccccc2n1)Nc1ccc(F)cc1 12.6 µM [inhibitor, partial curve, poor fit]
O=C(CCCc1nc(-c2ccccc2)no1)Nc1cc(C(F)(F)F)cc(C(F)(F)F)c1 12.6 µM [inhibitor, partial curve]
Cc1ccc(N(C)C(=O)C2CCCN2S(=O)(=O)c2ccc3c(c2)n(C)c(=O)c(=O)n3C)cc1 (configuration not stated) 44.7 µM [inhibitor, single point]
Cc1ccc(-c2cc(-c3ccccc3Cl)[nH]n2)c(O)c1 31.6 µM [inhibitor, single point]
COC/C=C/C1=CC2=CC(=O)C(C)(OC(=O)c3cnc4ccccc4n3)C(=O)C2=CN1Cc1ccc(OC)cc1 (configuration not stated) 35.5 µM [inhibitor, single point]
COC(=O)c1scc(-c2ccc(C)cc2)c1S(=O)(=O)Nc1cccc(Cl)c1C 44.7 µM [inhibitor, single point]
COC(=O)C1=C(C(=O)OC)SC(=C2C(=S)C(C)(C)N(C(=O)CC(C)C)c3ccccc32)S1 1.58 µM [inhibitor, full curve]
CCN(CC)c1ccc(/C=N/OC(C)C(=O)Nc2ccc(C)cc2)cc1 (configuration not stated) 14.1 µM [activator, partial curve, poor fit]
CCOC(=O)c1ccc(NC2c3ccccc3C(=O)N2c2ccccn2)cc1 (configuration not stated) 25.1 µM [inhibitor, single point]
O=C(/C=C/c1ccccc1)CC(O)(c1ccccc1)C(F)(F)C(F)F (configuration not stated) 31.6 µM [activator, partial curve, poor fit]
O=C1C(Cl)=C(Nc2ccccc2O)C(=O)N1c1ccccc1 25.1 µM [inhibitor, single point]
C=CCNC(=S)N1CCc2c([nH]c3ccccc23)C1C (configuration not stated) 39.8 µM [activator, single point]
COc1cccc(/C=N/NC(=O)CCn2c3ccccc3c3ccccc32)c1 5.62 µM [inhibitor, partial curve]
CCOC(=O)c1ccccc1NC(=O)Cn1cnc2c(cnn2-c2ccccc2)c1=O 22.4 µM [inhibitor, partial curve, poor fit]
CCc1nnc2c3ccccc3nc(Nc3ccccc3OC)n12 2.51 µM [inhibitor, partial curve, poor fit]
COc1cccc(-c2cc(C(=O)Nc3ccc(Br)c(C)c3)[nH]n2)c1 39.8 µM [inhibitor, single point]
CCOc1ccc(C2C(C(=O)Nc3ccccc3OC)=C(C)Nc3c(C(=O)Nc4cccc(C)c4)cnn32)cc1 (configuration not stated) 22.4 µM [inhibitor, partial curve]
Cc1ccc(NC(=O)Nc2nnc(Cc3ccc([N+](=O)[O-])cc3)s2)cc1C 6.31 µM [inhibitor, partial curve]
CCOC(=O)CSC1=C(C#N)C(c2ccc(C)cc2)C2=C(CCCC2=O)N1 (configuration not stated) 0.891 µM [inhibitor, single point]
Cc1ccc(CCNc2nc3c(S(=O)(=O)c4ccccc4)nnn3c3ccsc23)cc1 3.16 µM [inhibitor, full curve]
COc1ccccc1CNC(=O)CSc1cc(=O)n(C)c2ccccc12 17.8 µM [inhibitor, single point]
COc1ccc(-c2cc(C(F)(F)F)nc(NCc3ccc(Cl)cc3)n2)cc1 20 µM [inhibitor, partial curve]
CCC1CN(C(=O)Nc2cccc(OC)c2)c2ccccc2O1 (configuration not stated) 8.91 µM [inhibitor, full curve]
Cc1[nH]c2ccccc2c1N=Nc1ccccc1F 39.8 µM [inhibitor, single point]
CCc1ccc(NCc2cc3cc4c(cc3n(CC(=O)Nc3ccccc3Cl)c2=O)OCO4)cc1 1.26 µM [activator, full curve]

activity, negative = inhibition, inactive:
CC1CCCN(c2ccc(C(=O)NCc3cccs3)cn2)C1 (configuration not stated) -0.614%
CCOc1ccc(Cl)cc1/C=N/NC(=O)CNC(=O)c1ccccc1 -3.53%
O=C(CSc1ccc(Cl)cc1)N1CCN(c2ccc([N+](=O)[O-])cc2Cl)CC1 4.52%
CCOC(=O)c1c(NC(=O)/C=C/c2ccc(OCC)c(OC)c2)sc2c1CCC2 -0.677%
CC(C)(C)OC(=O)N1CCC(c2nnc(SCc3ccccc3F)o2)CC1 -14.5%
Cc1ccc(-c2csc(=S)n2CC(=O)OCC(=O)NCc2ccco2)cc1 -1.8%
CCOC(=O)c1cnc(-n2nc(C)cc2C)nc1Oc1ccccc1F 1.77% [at 0.0958 µM]
CCOC(=O)C(NC(=O)CC)(Nc1nc2c(s1)CCCC2)C(F)(F)F (configuration not stated) -2.7%
CC1=NN(C(N)=S)C(=O)C1N=Nc1ccc(O)cc1 (configuration not stated) -9.63%
Cc1sc(-n2cccc2)c(C(C)NC(=O)Nc2ccccc2Cl)c1C (configuration not stated) -10.8%
COC(=O)[C@@]1(Cc2ccc(OC)cc2)[C@H]2c3cc(C(=O)N(C)C)n(CCO)c3C[C@H]2CN1C(=O)c1ccccc1 -4.24%
CCCCN(C)C1=CC2=CC(=C(C#N)C#N)CCC2CC1 (configuration not stated) 6.88%
O=C(CCCCn1c(=O)c2ccccc2n(CC(=O)Nc2ccccc2)c1=O)NCc1ccccc1Cl -14.6%
CC(C)(C)NC(=O)CSCc1c(Cl)cccc1Cl 7.95%
COc1cc(C2Nc3c(F)cccc3C3C=CCC32)cc(Br)c1OC (configuration not stated) -6.38%
CCCCc1nc2n[nH]c(N)c2c2c1CSC(C)(C)C2 17.5%
CC(c1ccc(F)cc1)n1cc(C(=O)NCCN(C)C)nn1 (configuration not stated) -2.4%
COC(=O)C1=C(C)N(Cc2ccc(OC)cc2)C(=O)/C1=C\c1ccco1 -5.56%
Cc1ccccc1Cn1c2ccccc2c2cnn(CC(=O)NCCCc3ccccc3)c(=O)c21 -9.86%
